# Reference: PubChem BioAssay AID588579 (National Center for Advancing Translational Sciences (NCATS), 2011)
# Where “and” joins values, the source holds several entries; their conditions need not be identical. Equal values may be shown once. Screen size: about 400,000 compounds; about 2,200 (0.55%) were called active. The inconclusive results got no clear call from the source; some entries with a clear call stand among them for comparison. Calls follow the shape of the dose curve; as a rule, active = well fitted inhibition curve with a large enough effect; inconclusive = small, poorly fitted or top-dose-only effect, or another doubt; inactive = no such curve, though single readings can be large or run the other way. Potencies of inconclusive entries are doubtful fits and often do not repeat.
# Biological target: DNA polymerase kappa (Homo sapiens) (UniProt Q9UBT6)
# Sequence of UniProt Q9UBT6 (Q9UBT6 whole entry, looked up): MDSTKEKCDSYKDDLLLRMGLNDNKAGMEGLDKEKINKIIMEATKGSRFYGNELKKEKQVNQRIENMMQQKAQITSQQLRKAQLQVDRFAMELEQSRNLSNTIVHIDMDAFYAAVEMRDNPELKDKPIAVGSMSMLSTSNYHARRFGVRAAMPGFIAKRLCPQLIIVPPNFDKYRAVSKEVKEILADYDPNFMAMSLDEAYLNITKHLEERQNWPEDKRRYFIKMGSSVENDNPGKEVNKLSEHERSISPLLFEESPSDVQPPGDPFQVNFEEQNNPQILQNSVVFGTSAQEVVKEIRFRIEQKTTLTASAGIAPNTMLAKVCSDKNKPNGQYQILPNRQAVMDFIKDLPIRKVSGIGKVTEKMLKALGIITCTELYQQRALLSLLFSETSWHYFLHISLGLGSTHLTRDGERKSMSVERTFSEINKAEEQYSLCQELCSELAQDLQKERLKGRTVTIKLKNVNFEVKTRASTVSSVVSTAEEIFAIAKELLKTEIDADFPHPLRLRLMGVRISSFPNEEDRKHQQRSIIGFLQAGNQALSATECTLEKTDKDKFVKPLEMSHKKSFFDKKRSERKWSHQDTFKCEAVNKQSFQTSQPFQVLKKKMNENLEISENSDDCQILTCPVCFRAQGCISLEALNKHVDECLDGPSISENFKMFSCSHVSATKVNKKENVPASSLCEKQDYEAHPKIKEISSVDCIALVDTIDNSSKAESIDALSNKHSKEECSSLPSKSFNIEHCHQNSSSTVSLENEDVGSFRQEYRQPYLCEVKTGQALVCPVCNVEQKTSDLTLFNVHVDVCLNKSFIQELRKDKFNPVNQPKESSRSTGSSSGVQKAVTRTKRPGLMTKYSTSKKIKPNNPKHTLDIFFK
# Assay: qHTS for Inhibitors of Polymerase Kappa
# Details: purified Pol kappa, fluorescent DNA synthesis assay, 10 min; series mostly up to 107 µM; activity, negative = inhibition: at the top concentration
# In short: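 10 nM Pol kappa was preincubated with compounds for 15 min at room temperature. Reaction started with 50 nM (final) substrate. Fluorescence read kinetically at 0 and 10 min.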
# % is scaled to controls: 0 for no effect and ±100 for the full control effect; potency is read from the fitted curve at half-maximal effect; tags tell the direction and shape of the fitted curve.
Structure (SMILES),Potency,"activity, negative = inhibition"
Cc1nc2ccc3nc(NC(=O)c4ccc5c(c4)OCCO5)sc3c2s1,"inconclusive: 89.1 µM [inhibitor, partial curve, poor fit]",–
Nc1ccc(-c2nc3cc(N)ccc3s2)cc1,–,inactive: -5.33%
COc1cc(/C=C(\C#N)C(=O)Nc2cc(C(F)(F)F)ccc2Cl)ccc1OCC(=O)Nc1cccc(C(F)(F)F)c1,"inconclusive: 89.1 µM [inhibitor, partial curve, poor fit]",–
O=C(Nc1ccc2oc(-c3ccc(Cl)c(Cl)c3)nc2c1)c1ncn[nH]1,"inconclusive: 79.4 µM [inhibitor, partial curve]",–
O=C(Cn1nnc2sc3c(c2c1=O)CCCC3)Nc1ccc(F)c(Cl)c1,"inconclusive: 89.1 µM [inhibitor, single point]",–
CCc1cccc(CC)c1NC(=O)C1CC(=O)N(c2ccc3c(c2)OCCO3)C1 (stereo unspecified),"inconclusive: 89.1 µM [inhibitor, single point]",–
CN(C)c1ccc(/C=C/c2sc3ccccc3[n+]2Cc2ccccc2)cc1,"inconclusive: 25.1 µM [inhibitor, single point]",–
CC/C=C\[C@H](O)[C@H](O)C1=C(C)C(=O)[C@]2(O1)C(=O)N[C@@](OC)(C(=O)c1ccccc1)C2O (stereo partly specified),"inconclusive: 89.1 µM [inhibitor, single point]",–
Cc1cccc(NC(=O)c2ccc(-c3ccccc3[N+](=O)[O-])o2)c1,"inconclusive: 89.1 µM [inhibitor, single point]",–
CC(C)Oc1ccc(CNC(=O)Cc2ccc(NC(=O)N3CCSc4ncccc43)cc2)cc1,–,inactive: -9.61%
CN(CC(=O)Nc1cccc(F)c1)C(=O)/C=C/c1ccc2ccccc2n1,"inconclusive: 89.1 µM [inhibitor, single point]",–
CC(=O)N1CCCc2cc(S(=O)(=O)N(C)CC(=O)Nc3ccc(F)c(Cl)c3)ccc21,–,inactive: -9.11% [at 60.1 µM]
Cn1c(=O)oc2cc(S(=O)(=O)NCCC(=O)Nc3ccc(F)c(Cl)c3)ccc21,active: 79.4 µM,–
Nc1ncnc2c1c(-c1ccc(Oc3ccccc3)cc1)cn2C1CCCC1,"inconclusive: 42.3 µM [inhibitor, partial curve, poor fit]",–
CCN(CC)c1ccc2cc(-c3nnc(-c4cccc(Cl)c4)o3)c(=O)oc2c1,"inconclusive: 89.1 µM [inhibitor, single point]",–
O=C(/C=C/c1ccco1)N1CCC(Cc2ccccc2)CC1,"inconclusive: 100 µM [inhibitor, single point]",–
O=C1NC(=S)N/C1=C/c1cccn1-c1ccc([N+](=O)[O-])cc1,"inconclusive: 89.1 µM [inhibitor, single point]",–
NCCNCCN,active: 1.06 µM,–
Cc1noc(NS(=O)(=O)c2ccc(NC(=O)c3ccc(N4C(=O)c5ccccc5C4=O)cc3)cc2)c1C,"inconclusive: 89.1 µM [inhibitor, single point]",–
COC(=O)c1ccccc1NC1=C/C(=N\S(=O)(=O)c2ccc(C(=O)O)cc2)c2ccccc2C1=O,"inconclusive: 44.7 µM [inhibitor, partial curve, poor fit]",–
CN(C)c1ccc(C(=C2C=CC(=[N+](C)C)C=C2)c2c(O)c(S(=O)(=O)[O-])cc3cc(S(=O)(=O)O)ccc23)cc1,active: 8.91 µM,–
NC1=NC(=O)/C(=C/c2ccc(-c3ccc(S(N)(=O)=O)cc3)o2)S1,active: 79.4 µM,–

Structure (SMILES),Potency,"activity, negative = inhibition"
COC1=C(NCc2ccc3c(c2)OCO3)C(=O)C(OC)=C(NCc2ccc3c(c2)OCO3)C1=O,–,inactive: -6.8%
Cc1ccc(-n2sc3ccccc3c2=O)cc1S(=O)(=O)N1CCCCC1,–,inactive: 2.4%
CCOC(=O)Cc1nnc(NC(=O)CSc2nnc3c4ccccc4n(C)c3n2)s1,"inconclusive: 79.4 µM [inhibitor, partial curve, poor fit]",–
O=C(O)c1ccc(Oc2ccc(S(=O)(=O)c3ccc(C(=O)O)c(C(=O)O)c3)cc2)cc1,"inconclusive: 79.4 µM [inhibitor, partial curve, poor fit]",–
COc1ccc(CCNC(=O)c2ccc3nc(-c4ccco4)c(-c4ccco4)nc3c2)cc1OC,active: 44.7 µM,–
COc1ccc(OC)c(Nc2nc(-c3ccc(O)c(O)c3)cs2)c1,"inconclusive: 100 µM [inhibitor, single point]",–
O=C(O)c1ccc(COc2ccc3ccccc3c2/C=C2/NC(=O)N(Cc3ccc(F)cc3)C2=O)cc1,"inconclusive: 89.1 µM [inhibitor, single point]",–
CC(C)S(=O)(=O)C1=NSC2=NC(=O)/C(=C\c3ccc(-c4ccccc4)o3)C(=N)N21,"inconclusive: 79.4 µM [inhibitor, partial curve, poor fit]",–
CCOC(=O)CCc1c(C)c2cc3c(c(C)c2oc1=O)OCN(CCc1ccccc1OC)C3,–,inactive: 0%
COc1ccc(C(=O)N(Cc2ccco2)Cc2ccccc2F)cc1Cl,–,inactive: -0.468%
CC(C)OC(=O)c1c2c(n3ccccc13)C(=O)c1ccccc1C2=O,–,inactive: -2.99%
O=C(COc1cccnc1[N+](=O)[O-])c1ccc(Cl)s1,active: 79.4 µM,–
O=C(COC(=O)c1ccccc1O)Nc1ncc(Cl)cc1Cl,active: 35.5 µM,–
Cc1ccc(NC(=O)N/C=C/c2ccco2)c(C)c1,"inconclusive: 56.2 µM [inhibitor, partial curve, poor fit]",–
Cc1ccc(-n2c(-c3ccc(Br)cc3)nc3c(cnn3-c3ccccc3)c2=O)cc1,"inconclusive: 89.1 µM [inhibitor, partial curve, poor fit]",–
COc1ccc(NC(=O)CSc2nncn3c2cc2occc23)c(OC)c1,"inconclusive: 100 µM [inhibitor, single point]",–
COc1ccc2c(c1)c(C(=O)N/N=C/c1ccc(O)c(O)c1)c(C)n2C,"inconclusive: 100 µM [inhibitor, single point]",–
COc1ccccc1N1CCN(c2ncc3c(n2)CCN(Cc2ccccc2C)C3)CC1,–,inactive: -12% [at 60.1 µM]
Cc1cccc(C)c1NC(=O)CN(C)C(=O)c1ccc2nc[nH]c2c1,"inconclusive: 100 µM [inhibitor, single point]",–
COc1ccc(NC(=O)CCCc2nnc3n(C(C)C)c(=O)c4sccc4n23)cc1Cl,–,inactive: 10.1%
CCN(CC)CCC=C(c1cccs1)c1cccs1,"inconclusive: 89.1 µM [inhibitor, partial curve, poor fit]",–
Nc1nonc1C(=O)N/N=C/c1ccc(-c2ccc(Cl)c(C(=O)O)c2)o1,"inconclusive: 100 µM [inhibitor, single point]",–

Structure (SMILES),Potency,"activity, negative = inhibition"
O=C(CNC(=O)c1ccccc1F)N/N=C/c1cc(Br)ccc1OC(=O)/C=C/c1ccco1,"inconclusive: 89.1 µM [inhibitor, single point]",–
COc1cccc(C2CC(=O)Nc3c2c(=O)n(C)c2nc4ccccc4n32)c1 (stereo unspecified),"inconclusive: 89.1 µM [inhibitor, single point]",–
Cc1ccc(C)c(-n2c3nc(=O)[nH]c(=O)c-3cc3cc([N+](=O)[O-])ccc32)c1,"inconclusive: 89.1 µM [inhibitor, single point]",–
CCC(=O)OC1(C)C(=O)C2=COC(c3ccc(OC)cc3)=CC2=C(Br)C1=O (stereo unspecified),"inconclusive: 56.2 µM [inhibitor, partial curve, poor fit]",–
CCOC(=O)N1CCC(N2Cc3cccc(C(=O)Nc4ccc(S(=O)(=O)N(CC)CC)cc4)c3C2=O)CC1,"inconclusive: 89.1 µM [inhibitor, single point]",–
Cn1c(=O)c2c(SCC(=O)Nc3ccc(F)cc3F)nc(C3CCCC3)nc2n(C)c1=O,–,inactive: -8.93% [at 60.1 µM]
O=C(Nc1cc(C(=O)Nc2ccccc2C(=O)O)cc(C(=O)Nc2ccccc2C(=O)O)c1)c1ccccc1,"inconclusive: 89.1 µM [inhibitor, single point]",–
COc1cc(/C=C/[N+](=O)[O-])ccc1OCc1cccc(C(=O)O)c1,active: 25.1 µM,–
CCOC(=O)C1(CCCc2ccccc2)CCN(Cc2cnc(C)s2)CC1,–,inactive: -10.5%
Cn1c(SCC(=O)N/N=C/C=C\c2ccco2)nc2ccccc21,active: 28.2 µM,–
O=C1CC(c2ccco2)Sc2nc3ccccc3n21 (stereo unspecified),active: 50.1 µM,–
Cc1cc(OCC(=O)Nc2ccc(CN3CCOCC3)cc2)c2c(C)cc(=O)oc2c1,–,inactive: -39.1%
O=C1C2CCCCN2C(=O)N1CCN1CCN(c2ccc([N+](=O)[O-])cc2)CC1 (stereo unspecified),"inconclusive: 89.1 µM [inhibitor, partial curve, poor fit]",–
O=C(CCC(=O)c1cccs1)NCCc1ccc(F)cc1,–,inactive: -7.89%
O=C(COC(=O)c1cc(S(=O)(=O)N2CCc3ccccc3C2)ccc1Cl)NCc1ccco1,"inconclusive: 89.1 µM [inhibitor, single point]",–
C=CCNS(=O)(=O)c1cc2c3c(c1)CCN3C(=O)CC2,active: 79.4 µM,–
Cn1c(=O)c(Nc2ccc(O)cc2)c2c3c(cccc31)C(=O)c1ccccc1-2,"inconclusive: 79.4 µM [inhibitor, single point]",–
CC1(C)OC(=O)C(=CNc2cccc(O)c2)C(=O)O1,–,inactive: -0.265%
O=C(NCc1ccco1)C1c2ccccc2Oc2ccccc21,"inconclusive: 56.2 µM [inhibitor, partial curve, poor fit]",–
CC(=O)c1ccc(NC(=O)c2ccc3nc(-c4ccco4)c(-c4ccco4)nc3c2)cc1,active: 7.94 µM,–
CCC(=O)Nc1ccc(CC)cc1-c1nc2ccccc2n(CC(=O)c2ccc(OC)cc2)c1=O,–,inactive: -21.1%
COc1ccc(NS(=O)(=O)c2ccc3c(c2)[C@H]2C=CC[C@H]2[C@@H](c2ccc(C(=O)O)cc2)N3)cc1,active: 22.4 µM and active: 10 µM,–
